Test results taken from US8309685B2 (Celgene Avilomics Research, Inc., priority 2007, dated 2012).
For at least one compound, name, drawing or mass did not settle the structure. Some compounds share one wording; it may come from a single statement.

What was measured:
Format in all cases: binding
[1] = biological target: T1, HCV NS3/4A wild type (genotype 1b) (Hepatitis C virus genotype 1b, UniProt P26663); assay: Mass spectrometric analysis (MALDI-TOF) of covalent modification, HCV wild type
T1 construct: mass spectroscopic analysis of HCV NS3/4A wild-type protease domain; purchased Bioenza Calif
Method: Mass spectrometric analysis of HCV wild type or HCV variant C159S in the presence of test compound was performed. 100 pmols of HCV wild type (Bioenza Calif.) was incubated with compound for 1 hr and 3 hrs at 10-fold access of […] to protein. 1 ul aliquots of the samples (total volume of 4.24 ul) were diluted with 10 ul of 0.1% TFA prior to micro C4 ZipTipping directly onto the MALDI target using Sinapinic acid as the desorption matrix (10 mg/ml in 01% TFA:Acetonitrile 50:50). Analyses were performed on a Shimadzu Biotech Axima TOF^2 (Shimadzu Instruments) matrix-assisted-laser desorption/ionization Time-of-Flight (MALDI-TOF) mass spectrometer. The same procedure was carried out on 100 pmols of HCV C159S mutant of HCV protease for 3 hrs at 10-fold excess of (I-3) to protein.
As depicted in FIGS. 2, 3, 4, and 5, mass spectrometric analysis of HCV wild type or HCV mutants in the presence of test compound (I-3) was performed. […] 1 ul aliquots of the samples were diluted with 10 ul of 0.1% TFA prior to micro C4 ZipTipping directly onto the MALDI target using Sinapinic acid as the desorption matrix (10 mg/ml in 0.1% TFA:Acetonitrile 50:50).
(§1) Mass spectrometric analysis of HCV wild type (genotype 1b) in the presence of test compounds I-73 and I-75 was performed using the following protocol: HCV NS3/4A wild type (wt) was incubated for 1 hr at a 10× fold access of test compound to protein. 2 ul aliquots of the samples were diluted with 10 ul of 0.1% TFA prior to micro C4 ZipTipping directly onto the MALDI target using Sinapinic acid as the desorption matrix (10 mg/ml in 0.1% TFA:Acetonitrile 50:50). For intact protein mass measurement the instrument was set in Linear mode using a pulsed extraction setting of 24,500 and apomyoglobin as the standard to calibrate the instrument.
as §1, with “HCV NS3/4A genotypes 1a, 1b, 2a, and 3a” for “HCV wild type (genotype 1b)”, “test compound I-96” for “test compounds I-73 and I-75”, “NS3/4A” for “NS3/4A wild type (wt)”, “for 3” for “for 1”, “in 01%” for “in 0.1%”

HCV NS3/4A mutant D168A = biological target: T2, HCV NS3/4A mutant D168A (Hepatitis C virus genotype 1b, UniProt P26663, D1194A); assay: Mass spectrometric analysis of covalent modification, D168A mutant; details: 10× excess of compound, 1 hour (and longer)
T2 construct: the new species at 25,278 and the unreacted at 24,430

HCV NS3/4A mutant A156T = biological target: T3, HCV NS3/4A mutant A156T (Hepatitis C virus genotype 1b, UniProt P26663, A1182T); assay: Mass spectrometric analysis of covalent modification, A156T mutant; details: 10× excess of compound, 1 hour
T3 construct: the new species at approximately 25,350 and the unreacted mutant at 24,498

HCV variant C159S = biological target: T4, HCV variant C159S (Hepatitis C virus genotype 1b, UniProt P26663, C1185S); assay: Mass spectrometric analysis of covalent modification, C159S variant; details: 10-fold excess of compound to protein, 3 hrs
T4 construct: HCV NS3/4A wild-type protease domain or HCV variant C159S

[2] = biological target: T5, Cys159 of wild-type HCV protease (Hepatitis C virus genotype 1b, UniProt P26663); assay: Modification of Cys159 of wild-type HCV protease using a tryptic digest strategy; details: 3 hrs incubation prior to tryptic digestion
T5 construct: mass spectroscopic analysis of HCV NS3/4A wild-type protease domain; purchased Bioenza Calif

[3] = reaction time not stated for these compounds (FIGS. 6-10)
[4] = 10-fold excess of compound to protein, 1 hr

Row | SMILES | Covalent modification of HCV wild type by mass spectrometry [1, 3] | Covalent modification of HCV wild type by mass spectrometry [1, 4] | Covalent modification of HCV(D168A) by mass spectrometry (HCV NS3/4A mutant D168A) | also measured
1 | C=C[C@@H]1C[C@]1(NC(=O)[C@@H]1C[C@@H](Oc2cc(-c3ccccc3)nc3cc(OC)ccc23)CN1C(=O)[C@H](CNC(=O)CCl)NC(=O)OC(C)(C)C)C(=O)NS(=O)(=O)c1ccccc1 [Compound I-7, N-[(1,1-dimethylethoxy)carbonyl]-3-[(chloroacetyl)amino]-L-alanyl-(4R)-4-[(7-methoxy-2-phenyl-4-quinolinyl)oxy]-L-prolyl-1-amino-2-ethenyl-N-(phenylsulfonyl)-(1R,2S)-cyclopropanecarboxamide] | mass spec shifts expected from covalent modification |  |  | 
2 | C=C[C@@H]1C[C@]1(NC(=O)[C@@H]1C[C@@H](Oc2cc(-c3ccccc3)nc3cc(OC)ccc23)CN1C(=O)[C@H](CCN(C)C(=O)CCl)NC(=O)OC(C)(C)C)C(=O)NS(=O)(=O)c1ccccc1 [Compound I-9, (2S)-2-[[(1,1-dimethylethoxy)carbonyl]amino]-4-(chloroacetyl)methylamino-butanoyl-(4R)-4-[(7-methoxy-2-phenyl-4-quinolinyl)oxy]-L-prolyl-1-amino-2-ethenyl-N-(phenylsulfonyl)-(1R,2S)-cyclopropanecarboxamide] | mass spec shifts expected from covalent modification |  |  | 
3 | C=CC(=O)NCC[C@H](NC(=O)OC(C)(C)C)C(=O)N1C[C@H](Oc2cc(-c3ccccc3)nc3cc(OC)ccc23)C[C@H]1C(=O)N[C@]1(C(=O)NS(=O)(=O)c2ccccc2)C[C@H]1C=C [Compound I-8, (2S)-2-[[(1,1-dimethylethoxy)carbonyl]amino]-4-(2-propenoyl)amino-butanoyl-(4R)-4-[(7-methoxy-2-phenyl-4-quinolinyl)oxy]-L-prolyl-1-amino-2-ethenyl-N-(phenylsulfonyl)-(1R,2S)-cyclopropanecarboxamide] | mass spec shifts expected from covalent modification |  |  | 
4 | C=C[C@@H]1C[C@]1(NC(=O)[C@@H]1C[C@@H](Oc2nccc3ccc(Br)cc23)CN1C(=O)[C@H](CCC(=O)C=C(C)C)NC(=O)OC(C)(C)C)C(=O)NS(=O)(=O)C1CC1 [Compound I-75, tert-butyl-(S)-1-((2S,4R)-4-(7-bromoisoquinolin-1-yloxy)-2-((1R,2S)-1-(cyclopropylsulfonylcarbamoyl)-2-vinylcyclopropylcarbamoyl)pyrrolidin-1-yl)-7-methyl-1,5-dioxooct-6-en-2-ylcarbamate] |  | conversion to a new peak | Substantial conversion | 
5 | C=CC(=O)N(C)CC[C@H](NC(=O)OC(C)(C)C)C(=O)N1C[C@H](Oc2cc(-c3ccccc3)nc3cc(OC)ccc23)C[C@H]1C(=O)N[C@]1(C(=O)NS(=O)(=O)c2ccccc2)C[C@H]1C=C [Compound I-12, (2S)-2-[[(1,1-dimethylethoxy)carbonyl]amino]-4-(2-propenoyl)methylamino-butanoyl-(4R)-4-[(7-methoxy-2-phenyl-4-quinolinyl)oxy]-L-prolyl-1-amino-2-ethenyl-N-(phenylsulfonyl)-(1R,2S)-cyclopropanecarboxamide] | mass spec shifts expected from covalent modification |  |  | 
6 | C=CC(=O)NC[C@H](NC(=O)OC(C)(C)C)C(=O)N1C[C@H](Oc2nccc3ccc(Br)cc23)C[C@H]1C(=O)N[C@]1(C(=O)NS(=O)(=O)C2CC2)C[C@H]1C=C [Compound I-73, tert-butyl-(S)-3-acrylamido-1-((2S,4R)-4-(7-bromoisoquinolin-1-yloxy)-2-((1R,2S)-1-(cyclopropylsulfonylcarbamoyl)-2-vinylcyclopropylcarbamoyl)pyrrolidin-1-yl)-1-oxopropan-2-ylcarbamate] |  | near complete conversion | covalent modification was observed | 
7 | C=CC(=O)NC[C@H](NC(=O)OC(C)(C)C)C(=O)N1C[C@H](Oc2cc(-c3ccccc3)nc3cc(OC)ccc23)C[C@H]1C(=O)N[C@]1(C(=O)NS(=O)(=O)c2ccccc2)C[C@H]1C=C [Compound I-3, N-[(1,1-dimethylethoxy)carbonyl]-3-[(2-propenoyl)amino]-L-alanyl-(4R)-4-[(7-methoxy-2-phenyl-4-quinolinyl)oxy]-L-prolyl-1-amino-2-ethenyl-N-(phenylsulfonyl)-(1R,2S)-cyclopropanecarboxamide] |  | significant reaction | nearly complete conversion | Covalent modification of HCV(A156T) by mass spectrometry (HCV NS3/4A mutant A156T): near complete reactivity; Covalent modification of HCV wild type by mass spectrometry ([1]; 10-fold excess of compound to protein, 3 hrs): nearly complete conversion; Covalent modification of HCV C159S variant by mass spectrometry (HCV variant C159S): did not show any evidence of modification; Site of modification after tryptic digest [2]: modification appeared on the tryptic peptide AAVCTR
8 | C=C[C@@H]1C[C@]1(NC(=O)[C@@H]1C[C@@H](Oc2cc(-c3ccccc3)nc3cc(OC)ccc23)CN1C(=O)[C@H](CCNC(=O)CCl)NC(=O)OC(C)(C)C)C(=O)NS(=O)(=O)c1ccccc1 [Compound I-4, (2S)-2-[[(1,1-dimethylethoxy)carbonyl]amino]-4-(chloroacetyl)amino-butanoyl-(4R)-4-[(7-methoxy-2-phenyl-4-quinolinyl)oxy]-L-prolyl-1-amino-2-ethenyl-N-(phenylsulfonyl)-(1R,2S)-cyclopropanecarboxamide] | mass spec shifts expected from covalent modification |  |  | 
